Results published in the supplement of paper PMC4604168 (melanoma cell lines).
The list shows a part of the results. Single values are uncertain, as repeats are few or missing.

Assays:
Assay in all cases: cell count relative to DMSO control; melanoma cells; higher = more viable cells
Settings in all cases: library dose: low library concentration; 72 h
MZ2-MEL = tested on: MZ2-MEL
MeWo = tested on: MeWo
RPMI7951 = tested on: RPMI7951
RVH-421 = tested on: RVH-421
SkMel28 = tested on: SkMel28
SkMel2 = tested on: SkMel2
SkMel30 = tested on: SkMel30
UACC62 = tested on: UACC62
WM115 = tested on: WM115
WM1716 = tested on: WM1716
WM1745 = tested on: WM1745
WM3526 = tested on: WM3526
WM3619 = tested on: WM3619
WM451Lu = tested on: WM451Lu
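Note: cell number obtained by counting DAPI-stained nuclei in high-throughput microscope images with image analysis software, screen run in 1,536-well plates.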

Compound | cell count (MZ2-MEL) [%] | cell count (MeWo) [%] | cell count (RPMI7951) [%] | cell count (RVH-421) [%] | cell count (SkMel28) [%] | cell count (SkMel2) [%] | cell count (SkMel30) [%] | cell count (UACC62) [%] | cell count (WM115) [%] | cell count (WM1716) [%] | cell count (WM1745) [%] | cell count (WM3526) [%] | cell count (WM3619) [%] | cell count (WM451Lu) [%]
C[C@@H](Oc1cc(-c2cnn(C3CCNCC3)c2)cnc1N)c1c(Cl)ccc(F)c1Cl [Crizotinib] + Clc1ccc(Nc2nnc(Cc3ccncc3)c3ccccc23)cc1 [vatalanib] (first compound 0.2 µM, partner dose 2 µM) | 102 | 92.2 | 102 | 116 | 91.5 | 101 | 101 | 116 | 85.3 | 102 | 87.7 | 112 | 83.8 | 81.6
CNC(=O)c1cc(Oc2ccc(NC(=O)Nc3ccc(Cl)c(C(F)(F)F)c3)cc2)ccn1 [sorafenib] + Nc1cccc2c1CN(C1CCC(=O)NC1=O)C2=O [lenalidomide] (first compound 0.4 µM, partner dose 1 µM) | 104 | 110 | 97.6 | 107 | 111 | 90 | 118 | 86.9 | 107 | 82.6 | 84.7 | 114 | 91.4 | 103
CN1CCN(c2ccc3nc(-c4c(N)c5c(F)cccc5[nH]c4=O)[nH]c3c2)CC1 [Dovitinib] + C#Cc1cccc(Nc2ncnc3cc(OCCOC)c(OCCOC)cc23)c1 [erlotinib] (first compound 0.1 µM, partner dose 0.8 µM) | 75.6 | 88.3 | 107 | 108 | 83.2 | 105 | 55.3 | 92.9 | 104 | 96.6 | 73.9 | 97.2 | 94.7 | 89.9
C[C@@H](Oc1cc(-c2cnn(C3CCNCC3)c2)cnc1N)c1c(Cl)ccc(F)c1Cl [Crizotinib] + COc1ccc(Cl)c(Nc2nc3ccccc3nc2NS(=O)(=O)c2cccc(NC(=O)C(C)(C)N)c2)c1 [XL147] (first compound 0.2 µM, partner dose 0.8 µM) | 98 | 89.1 | 92.5 | 75 | 88.1 | 99.9 | 93.8 | 106 | 110 | 109 | 98.8 | 81.4 | 111 | 94.6
C[C@@H](Oc1cc(-c2cnn(C3CCNCC3)c2)cnc1N)c1c(Cl)ccc(F)c1Cl [Crizotinib] + C#Cc1cccc(Nc2ncnc3cc(OCCOC)c(OCCOC)cc23)c1 [erlotinib] (first compound 0.2 µM, partner dose 0.8 µM) | 96.4 | 92.6 | 114 | 81.2 | 72.1 | 95.2 | 93.7 | 85.7 | 81.1 | 92.9 | 78.5 | 86.5 | 99.6 | 92.4
CN1CCN(c2ccc3nc(-c4c(N)c5c(F)cccc5[nH]c4=O)[nH]c3c2)CC1 [Dovitinib] + CC(=O)c1c(C)c2cnc(Nc3ccc(N4CCNCC4)cn3)nc2n(C2CCCC2)c1=O [palbociclib] (first compound 0.1 µM, partner dose 0.04 µM) | 71.2 | 74.6 | 74.7 | 91.1 | 66.6 | 91.9 | 51 | 83.5 | 90.1 | 80.5 | 68.2 | 62.4 | 70.4 | 85.5
CS(=O)(=O)CCNCc1ccc(-c2ccc3ncnc(Nc4ccc(OCc5cccc(F)c5)c(Cl)c4)c3c2)o1 [lapatinib] + Cn1c(Nc2ccc(C(F)(F)F)cc2)nc2cc(Oc3ccnc(-c4ncc(C(F)(F)F)[nH]4)c3)ccc21 [CHIR265] (first compound 0.8 µM, partner dose 0.08 µM) | 81.7 | 72 | 48.3 | 58.3 | 62.7 | 78.2 | 58.5 | 49.5 | 50.4 | 70.8 | 55.7 | 57 | 71.1 | 94.1
CS(=O)(=O)CCNCc1ccc(-c2ccc3ncnc(Nc4ccc(OCc5cccc(F)c5)c(Cl)c4)c3c2)o1 [lapatinib] + Cc1nc(Nc2ncc(C(=O)Nc3c(C)cccc3Cl)s2)cc(N2CCN(CCO)CC2)n1 [dasatanib] (first compound 0.8 µM, partner dose 0.004 µM) | 80.9 | 95.9 | 78 | 83.3 | 85.7 | 92.8 | 106 | 72.5 | 80 | 101 | 67.2 | 106 | 81.2 | 85.6
CN1CCN(c2ccc3nc(-c4c(N)c5c(F)cccc5[nH]c4=O)[nH]c3c2)CC1 [Dovitinib] + Cn1nnc2c(C(N)=O)ncn2c1=O [temozolomide] (first compound 0.1 µM, partner dose 2 µM) | 76.1 | 74.6 | 99.9 | 84.6 | 69.3 | 96.6 | 50.5 | 80.1 | 95 | 79.1 | 76.9 | 48.6 | 103 | 111
C[C@@H](Oc1cc(-c2cnn(C3CCNCC3)c2)cnc1N)c1c(Cl)ccc(F)c1Cl [Crizotinib] + CC(=O)c1c(C)c2cnc(Nc3ccc(N4CCNCC4)cn3)nc2n(C2CCCC2)c1=O [palbociclib] (first compound 0.2 µM, partner dose 0.04 µM) | 91.8 | 72.7 | 80.3 | 99.3 | 76.6 | 79.9 | 76.7 | 74.1 | 76.8 | 70.4 | 79 | 52.4 | 81 | 76.1
CS(=O)(=O)CCNCc1ccc(-c2ccc3ncnc(Nc4ccc(OCc5cccc(F)c5)c(Cl)c4)c3c2)o1 [lapatinib] + C#Cc1cccc(Nc2ncnc3cc(OCCOC)c(OCCOC)cc23)c1 [erlotinib] (first compound 0.8 µM, partner dose 0.8 µM) | 90.1 | 110 | 96.6 | 143 | 80.4 | 100 | 103 | 90.3 | 107 | 99.6 | 99.2 | 98.6 | 92.2 | 108
CS(=O)(=O)CCNCc1ccc(-c2ccc3ncnc(Nc4ccc(OCc5cccc(F)c5)c(Cl)c4)c3c2)o1 [lapatinib] + COCC[n+]1c2c(n(Cc3cnccn3)c1C)C(=O)c1ccccc1C2=O [YM155] (first compound 0.8 µM, partner dose 0.0004 µM) | 54.8 | 82.4 | 72.3 | 77.9 | 88.8 | 93.5 | 87.3 | 86 | 93 | 89.5 | 79.7 | 88.4 | 107 | 82.8
CN1CCN(c2ccc3nc(-c4c(N)c5c(F)cccc5[nH]c4=O)[nH]c3c2)CC1 [Dovitinib] + O=C(O)c1ccc2c(c1)nc(Nc1cccc(Cl)c1)c1ccncc12 [CX4945] (first compound 0.1 µM, partner dose 0.4 µM) | 87.2 | 74.6 | 82.4 | 93.8 | 86.9 | 110 | 49.7 | 90.2 | 99.9 | 111 | 81 | 70.3 | 90.1 | 91.9
CNC(=O)c1cc(Oc2ccc(NC(=O)Nc3ccc(Cl)c(C(F)(F)F)c3)cc2)ccn1 [sorafenib] + CC(=O)c1c(C)c2cnc(Nc3ccc(N4CCNCC4)cn3)nc2n(C2CCCC2)c1=O [palbociclib] (first compound 0.4 µM, partner dose 0.04 µM) | 80.7 | 80.1 | 76 | 98.9 | 93 | 91 | 102 | 83.5 | 86.8 | 60.9 | 93.9 | 72.7 | 85.5 | 89.7
CN1CCN(c2ccc3nc(-c4c(N)c5c(F)cccc5[nH]c4=O)[nH]c3c2)CC1 [Dovitinib] + CNC(=O)c1cc(Oc2ccc(NC(=O)Nc3ccc(Cl)c(C(F)(F)F)c3)cc2)ccn1 [sorafenib] (first compound 0.1 µM, partner dose 0.4 µM) | 75.8 | 82 | 95.8 | 116 | 82.6 | 97 | 41.4 | 74.8 | 95 | 92.6 | 74.9 | 86.8 | 102 | 97.8
CS(=O)(=O)CCNCc1ccc(-c2ccc3ncnc(Nc4ccc(OCc5cccc(F)c5)c(Cl)c4)c3c2)o1 [lapatinib] + Nc1ccn([C@@H]2O[C@H](CO)[C@@H](O)C2(F)F)c(=O)n1 [gemcitabine] (first compound 0.8 µM, partner dose 0.0004 µM) | 95.7 | 92.3 | 89.9 | 80.2 | 96 | 85 | 104 | 110 | 81.8 | 108 | 89.7 | 109 | 101 | 94.7
CNC(=O)c1cc(Oc2ccc(NC(=O)Nc3ccc(Cl)c(C(F)(F)F)c3)cc2)ccn1 [sorafenib] + Cc1nc(Nc2ncc(C(=O)Nc3c(C)cccc3Cl)s2)cc(N2CCN(CCO)CC2)n1 [dasatanib] (first compound 0.4 µM, partner dose 0.004 µM) | 80.3 | 85.8 | 85.5 | 101 | 67.6 | 99.4 | 83.3 | 91.5 | 83.8 | 74.9 | 70.1 | 101 | 91.4 | 80.6
